Data taken from the supplement of paper PMC10126150.
Values marked as one replicate rest on one cluster of the flow cell; about a third of the high ones do not repeat.

System: ATP
Assay: switch fluorescence ratio, 500 uM ATP over buffer (Cy3 cluster intensity, sum of 5 cycles each) (fold (ratio)); higher = stronger signal-on switching upon ATP binding; sequences stand for … in TCGTCGGCAGCGTCAGATGTGTATAAGAGACAGTTTTTTTTTTTTTTTTTTTTTTTTT…TC
Details: aptamer strand: ATP DNA aptamer (quencher-CACCTGGGGGAGTATTGCGGAGGAAGG + anchor), 100 nM annealed; ATP concentration: 500 uM; one replicate
Summary of the method: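 Imaging in selection buffer was followed by imaging after 15 min with 500 uM ATP at 22 °C, for Cy3-labelled switching-strand clusters annealed to 100 nM quencher-labelled ATP aptamer on a modified Illumina MiSeq flow-cell. Five of these buffer/ATP cycles ran, separated by NaOH stripping and re-annealing. The fluorescence ratio per cluster is summed target-cycle over summed buffer-cycle Cy3 intensity, averaged per switch-domain sequence; clusters outside 100-1000 RFU were removed.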
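Further: ATP exposure 15 min at 22 °C before imaging.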

Sequence | switch fluorescence ratio
TTCTTAAAGT | 0.989
TGGAGTAGTG | 1.03
CTTTTAAAG | 0.986
GAATTAAGTA | 0.988
CAGCTTTCCG | 1.06
TGGACACACG | 1.1
GTCGCATGCA | 1.01
CTAAGGGAAA | 1.1
TTATAAACC | 1.05
TAGGGCTGAC | 1.16
ACTACACGAA | 1.26
ATGGTGGACC | 1.05
GGGGATGAAC | 1.01
CAAGAATATT | 1.01
AATTGCTTTA | 1.02
ATAAGCCGTT | 0.967
AGCAACGTTA | 1.04
AAGGGACATG | 1.1
GTCTGTATAC | 1.66
GCGGGATATC | 0.982
ACAAGGTGAG | 0.966
GGGAACCCGG | 1.01
TCTGCTCCCT | 1.11
CGGTCCCAAG | 1.01
GAGTTCCTAT | 0.995
AGAAGATATA | 1.03

Sequence | switch fluorescence ratio
TGCAATGTGG | 1.06
ATGGTCAATC | 0.996
GGGAAGGTAA | 0.984
TTGCCCGAGC | 1
TCACCGGCCA | 1.09
AGTGCGTGAG | 0.947
AGTAGACTA | 1.01
GGCTAGGCAT | 0.986
TCAGAGCATA | 1.92
GGTCAAGGAA | 0.99
GAATGTTGAT | 1.03
CTCGAATTGC | 1.51
CATGGTGTAA | 0.997
TCCGCTTTTG | 1.12
TGGTGTTGGC | 0.977
CTTCAGATAC | 2.17
ACCCGTGCGG | 0.964
ATTAATTGAT | 1.02
CTCCTTAGCG | 0.99
TAAGGGCCTG | 0.99
GCCGATTGGC | 1.01
GGGGGTCTAC | 1.01
GCTCCGGTTA | 1.07
TGGTAAGTTA | 0.981
TTGCAGCACA | 1.43
TATCCTAAC | 1.1

Sequence | switch fluorescence ratio
TGCGGATGAA | 0.994
AGGTAGAGAA | 1.02
CACTAGTCAA | 1.1
GTTCCACACA | 1.01
ACACCACAGT | 1.44
AGGCCGCTCC | 1.09
CTCGCATCGG | 1.21
AGCTAGACTG | 1.07
GGCAACTATT | 1.02
GATCCTTTAG | 1
TATGCCCGCG | 1.03
CATCCAGGAT | 1.06
GTATGACCTG | 0.988
GGAGGGTGAC | 1.01
CATACGGCGT | 1.04
GGGCGGGTG | 1.07
TCTGCGCTTA | 1.47
CCCCGACTAT | 1.94
AGTCGTGATA | 1.03
GCGTACGGAC | 1.2
ACAGCGGAAA | 1.03
CTGTATTCGG | 1.02
GATGGGCAGT | 0.979
GGAATAGTGT | 0.998
TTCAATCCAT | 0.97
TAACCTGTAT | 1.15

Sequence | switch fluorescence ratio
GCCGGGTCTG | 1.01
GATGGGGCAT | 0.933
GTGGCCAAAA | 1
TACCAGATGT | 1.08
ACATGCTGCC | 1.04
ATGAGTGG | 0.999
CGCGATCTTG | 1.13
TCGACGGCGC | 1.16
CTTAGTAGTC | 0.973
AGTCGGCTTA | 1.03
TGGGTTTGAA | 1.01
ATCAAAATGC | 1.59
GCAACTTGCA | 1.03
TTTGACTGCT | 1.01
TTCAGGCATA | 1.03
CGTCTGGGCC | 0.991
AGGGGAGTGC | 0.977
CGAGCATTAA | 3.84
GAAGAAGGGC | 0.978
AAGACCAAAT | 1.03
GCGATTCGG | 1.04
GCTCTACATC | 1.04
TCGTCATTGG | 1.01
TTCGAGATGA | 0.987
AGACTCATTT | 1
TGCTGCGGAG | 1

Sequence | switch fluorescence ratio
CATCATGCCA | 1.05
TTCTCGCGTA | 1.02
TAAGGCAAAG | 1.06
GGTCAACTGA | 1.07
ATCAGGGCTT | 0.975
TAGATTGAGA | 1
ACCGCTCT | 1.03
ATTGGGCCAC | 0.982
GAAAGACAGC | 1.06
GCTAGCAAAC | 0.988
AGGATTTCAG | 0.999
GAATTCTACC | 0.993
TCCAAAGGCT | 0.969
ATGAGTCTAG | 0.963
GTGACACCGC | 1.19
TTACAAATCA | 1.05
TTTCGGTT | 0.982
GTGAATCTAC | 1.03
AATGTACTT | 1.1
ACGTTTATAA | 1.06
TATGTAGAGG | 0.971
GGGATGTGAC | 1.24
TGTATAGGTT | 0.968
AGGCCTACTA | 1.04
GCTTTCCTGT | 0.979
CCATGGGGA | 1.01

Sequence | switch fluorescence ratio
TGTAATACAG | 1.05
GTTGGGTCTT | 0.963
ATTCGCCCCA | 0.979
CACATGTTGT | 0.981
CTGTCAGAG | 1.06
TATTATAT | 1.02
ATCGAGGAGG | 0.979
GAGGCATTGA | 1.1
TCACGGGGCG | 1.01
ACGTCGGGGA | 0.998
ACGATACAG | 1.34
GCCCGTTATT | 0.944
GGCTCCACCG | 1.22
AGCGTTCCGA | 1.2
CGTCGGGCC | 0.992
ATTAAAGCGG | 1.03
TTTTTCTTT | 0.988
TATTACTTGG | 1
AATAGTGCGG | 1.02
TGCTATGGG | 1.05
GGCTTCGTGA | 1.09
TTATCAGAG | 1.08
TTACAATCTC | 1.01
AATGAATGGA | 1.06
